Results reported in patent US20250381289A1 (Genmab, published 2025).

How the values were obtained:
[1] = target: T1, EGFR on EGFR and cMET co-expressed tumor cell lines (UniProt P00533); experiment: flow cytometry, KYSE-30 cells (co-express EGFR and cMET; both arms contribute)
T1 construct: whole, on cells

[2] = target: T2, cMET on EGFR and cMET co-expressed tumor cell lines (UniProt P08581); experiment: as above
T2 construct: whole, on cells

[3] = target: T1, EGFR on EGFR and cMET co-expressed …; experiment: flow cytometry, NCI-H292 cells (co-express EGFR and cMET; both arms contribute)
[4] = target: T2, cMET on EGFR and cMET co-expressed …; experiment: as above
[5] = target: T1, EGFR on EGFR and cMET co-expressed …; experiment: flow cytometry, SNU-5 cells (co-express EGFR and cMET; both arms contribute)
[6] = target: T1, EGFR on EGFR and cMET co-expressed …; experiment: flow cytometry, A431 cells (co-express EGFR and cMET; both arms contribute)
[7] = target: T2, cMET on EGFR and cMET co-expressed …; experiment: as above
[8] = target: T1, EGFR on EGFR and cMET co-expressed …; experiment: flow cytometry, SW620 cells (named among the EGFR and cMET co-expressing lines; both arms contribute)
[9] = target: T2, cMET on EGFR and cMET co-expressed …; experiment: as above
[10] = target: human HER3 recombinant protein (human, UniProt P21860 part only); experiment: ELISA, plate coated with 100 ng/well human HER3 recombinant protein, HRP anti-human Fc, OD450
[11] = target: T1, EGFR on EGFR and cMET co-expressed …; experiment: flow cytometry on NCI-H292 cells (co-express EGFR and cMET), PE anti-human Fc; signal of the whole bispecific, not resolved by arm
[12] = target: T2, cMET on EGFR and cMET co-expressed …; experiment: as above
[13] = target: human HER2 recombinant protein (human, UniProt P04626 part only); experiment: ELISA, plate coated with 100 ng/well human HER2 recombinant protein, HRP anti-human Fc, OD450
[14] = target: T3, human Sema3A recombinant protein (human, UniProt Q14563 21-771, limits assumed); experiment: ELISA, plate coated with 100 ng/well human Sema3A recombinant protein, HRP anti-human Fc, OD450
T3 sequence (looked up): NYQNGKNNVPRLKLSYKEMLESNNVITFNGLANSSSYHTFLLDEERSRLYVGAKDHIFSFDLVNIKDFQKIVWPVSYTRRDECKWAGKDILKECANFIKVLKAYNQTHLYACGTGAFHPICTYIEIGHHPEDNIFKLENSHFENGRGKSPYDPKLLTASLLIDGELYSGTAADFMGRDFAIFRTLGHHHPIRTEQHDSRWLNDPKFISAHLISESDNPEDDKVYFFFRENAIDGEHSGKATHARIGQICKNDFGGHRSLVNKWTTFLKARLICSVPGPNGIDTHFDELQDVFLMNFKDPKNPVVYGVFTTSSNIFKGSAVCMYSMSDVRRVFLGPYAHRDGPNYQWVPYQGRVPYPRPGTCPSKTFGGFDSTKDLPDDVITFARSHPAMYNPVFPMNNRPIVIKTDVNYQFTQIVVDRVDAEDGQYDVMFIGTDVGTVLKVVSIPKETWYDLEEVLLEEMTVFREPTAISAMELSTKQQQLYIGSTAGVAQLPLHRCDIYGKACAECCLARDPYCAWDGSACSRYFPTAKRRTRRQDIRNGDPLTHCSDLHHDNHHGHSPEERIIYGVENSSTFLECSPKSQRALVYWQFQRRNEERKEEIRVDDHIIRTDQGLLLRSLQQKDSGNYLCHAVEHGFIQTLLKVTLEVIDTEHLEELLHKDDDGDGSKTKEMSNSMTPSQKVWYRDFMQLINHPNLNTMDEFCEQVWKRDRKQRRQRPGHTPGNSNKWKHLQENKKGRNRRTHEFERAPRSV

T2 sequence (P08581 25-1390 limits assumed): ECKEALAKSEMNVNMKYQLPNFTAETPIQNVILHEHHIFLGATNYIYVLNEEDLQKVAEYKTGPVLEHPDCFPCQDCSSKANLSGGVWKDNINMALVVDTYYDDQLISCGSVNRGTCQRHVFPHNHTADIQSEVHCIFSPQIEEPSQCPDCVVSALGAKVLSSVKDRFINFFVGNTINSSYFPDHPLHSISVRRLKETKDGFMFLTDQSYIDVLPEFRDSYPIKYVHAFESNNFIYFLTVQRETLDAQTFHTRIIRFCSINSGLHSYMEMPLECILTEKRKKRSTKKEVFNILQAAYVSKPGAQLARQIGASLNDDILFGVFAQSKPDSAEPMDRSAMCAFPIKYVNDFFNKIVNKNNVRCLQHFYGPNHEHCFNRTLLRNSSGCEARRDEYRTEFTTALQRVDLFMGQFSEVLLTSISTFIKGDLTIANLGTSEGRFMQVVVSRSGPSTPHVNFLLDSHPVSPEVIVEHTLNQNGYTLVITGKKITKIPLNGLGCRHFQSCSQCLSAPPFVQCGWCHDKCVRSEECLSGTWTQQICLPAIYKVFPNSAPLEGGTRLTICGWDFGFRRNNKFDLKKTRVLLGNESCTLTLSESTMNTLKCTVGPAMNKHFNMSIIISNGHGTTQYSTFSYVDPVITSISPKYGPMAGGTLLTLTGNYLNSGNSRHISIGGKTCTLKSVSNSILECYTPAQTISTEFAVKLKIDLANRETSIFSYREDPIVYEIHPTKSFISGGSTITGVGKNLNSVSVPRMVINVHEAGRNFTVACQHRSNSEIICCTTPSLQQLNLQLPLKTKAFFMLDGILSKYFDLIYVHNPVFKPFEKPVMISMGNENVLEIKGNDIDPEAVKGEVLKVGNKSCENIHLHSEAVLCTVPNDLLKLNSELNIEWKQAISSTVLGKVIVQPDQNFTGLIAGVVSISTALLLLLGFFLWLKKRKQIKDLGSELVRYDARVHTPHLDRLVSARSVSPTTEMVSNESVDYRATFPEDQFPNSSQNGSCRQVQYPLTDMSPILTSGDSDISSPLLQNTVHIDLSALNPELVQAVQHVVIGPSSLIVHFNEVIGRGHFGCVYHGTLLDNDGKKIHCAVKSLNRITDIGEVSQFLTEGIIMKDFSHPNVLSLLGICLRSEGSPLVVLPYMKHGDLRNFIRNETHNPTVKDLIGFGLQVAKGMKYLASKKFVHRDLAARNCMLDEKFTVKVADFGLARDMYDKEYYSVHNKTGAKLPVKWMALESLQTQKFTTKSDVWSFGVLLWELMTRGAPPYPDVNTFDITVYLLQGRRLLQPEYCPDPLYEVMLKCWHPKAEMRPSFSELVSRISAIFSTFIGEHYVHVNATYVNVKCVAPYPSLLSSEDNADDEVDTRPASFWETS

B1: Bsab 67 (bispecific antibody, human IgG1, kappa, L234A L235A)
chain 1: AIQLTQSPESLSASVGDRVTITCRASQDISSALVWYQQKPGKAPKLLIYDASSLESGVPDRFSGSESGTDFTLTISSLQPEDFATYYCQQFNSYPLTFGGGTKVEIKRTVAAPSVFIFPPSDEQLKSGTASVVCLLNNFYPREAKVQWKVDNALQSGNSQESVTEQDSKDSTYSLSSTLTLSKADYEKHKVYACEVTHQGLSSPVTKSFNRGECGGGGSGGGGSGGGGSGGGGSGGGGSGGGGSGGGGSGGGGSQVQLVESGGGVVQPGRSLRLSCAASGFTFSTYGMHWVRQAPGQGLEWVAVIWDDGSYKYYGDSVKGRFTISRDNSKNTLYLQMNSLRAEDTAVYYCARDGITMVRGVMKDYFDYWGQGTLVTVSSASTKGPSVFPLAPSSKSTSGGTAALGCLVKDYFPEPVTVSWNSGALTSGVHTFPAVLQSSGLYSLSSVVTVPSSSLGTQTYICNVNHKPSNTKVDKKV[omitted - human IgG1 Fc with L234A L235A Y349C T366W (EU numbers)]
chain 2: DIVMTQSPDSLAVSLGERATINCKSSESVDSYANSFLHWYQQKPGQPPKLLIYRASTRESGVPDRFSGSGSGTDFTLTISSLQAEDVAVYYCQQSKEDPLTFGGGTKVEIKRTVAAPSVFIFPPSDEQLKSGTASVVCLLNNFYPREAKVQWKVDNALQSGNSQESVTEQDSKDSTYSLSSTLTLSKADYEKHKVYACEVTHQGLSSPVTKSFNRGECGGGGSGGGGSGGGGSGGGGSGGGGSGGGGSGGGGSGGGGSQVQLVQSGAEVKKPGASVKVSCKASGYIFTAYTMHWVRQAPGQGLEWMGWIKPNNGLANYAQKFQGRVTMTRDTSISTAYMELSRLRSDDTAVYYCARSEITTEFDYWGQGTLVTVSSASTKGPSVFPLAPSSKSTSGGTAALGCLVKDYFPEPVTVSWNSGALTSGVHTFPAVLQSSGLYSLSSVVTVPSSSLGTQTYICNVNHKPSNTKVDKKVEPKSCDKTHTCPPCPAPEAAGGPSVFLFPPKPKDTLMISRTPEVTCVVVDVSHEDPEVKFNWYVDGVEVHNAKTKPREEQYNSTYRVVSVLTVLHQDWLNGKEYKCKVSNKALPAPIEKTISKAKGQPREPQVYTLPPCRDELTKNQVSLSCAVKGFYPSDIAVEWESNGQPENNYKTTPPVLDSDGSFFLVSKLTVDKSRWQQGNVFSCSVMHEALHNHYTQKSLSLSPGK
notes: two chains, one knob and one hole; also called Basb 67
- EC50 (read off the curve) [1]: ~4 nM
- EC50 (read off the curve) [2]: ~4 nM
- EC50 (read off the curve) [3]: ~3 nM
- EC50 (read off the curve) [4]: ~3 nM
- EC50 (read off the curve) [5]: ~3 nM
- EC50 (read off the curve) [6]: ~3 nM
- EC50 (read off the curve) [7]: ~3 nM
- EC50 (read off the curve) [8]: ~0.6 nM
- EC50 (read off the curve) [9]: ~0.6 nM

B2: Bsab 67-LD038 (5) (bispecific antibody, human IgG1, kappa, L234A L235A)
chain 1: AIQLTQSPESLSASVGDRVTITCRASQDISSALVWYQQKPGKAPKLLIYDASSLESGVPDRFSGSESGTDFTLTISSLQPEDFATYYCQQFNSYPLTFGGGTKVEIKRTVAAPSVFIFPPSDEQLKSGTASVVCLLNNFYPREAKVQWKVDNALQSGNSQESVTEQDSKDSTYSLSSTLTLSKADYEKHKVYACEVTHQGLSSPVTKSFNRGECGGGGSGGGGSGGGGSGGGGSGGGGSGGGGSGGGGSGGGGSQVQLVESGGGVVQPGRSLRLSCAASGFTFSTYGMHWVRQAPGQGLEWVAVIWDDGSYKYYGDSVKGRFTISRDNSKNTLYLQMNSLRAEDTAVYYCARDGITMVRGVMKDYFDYWGQGTLVTVSSASTKGPSVFPLAPSSKSTSGGTAALGCLVKDYFPEPVTVSWNSGALTSGVHTFPAVLQSSGLYSLSSVVTVPSSSLGTQTYICNVNHKPSNTKVDKKV[omitted - human IgG1 Fc with L234A L235A Y349C T366W (EU numbers)]
chain 2: DIVMTQSPDSLAVSLGERATINCKSSESVDSYANSFLHWYQQKPGQPPKLLIYRASTRESGVPDRFSGSGSGTDFTLTISSLQAEDVAVYYCQQSKEDPLTFGGGTKVEIKRTVAAPSVFIFPPSDEQLKSGTASVVCLLNNFYPREAKVQWKVDNALQSGNSQESVTEQDSKDSTYSLSSTLTLSKADYEKHKVYACEVTHQGLSSPVTKSFNRGECGGGGSGGGGSGGGGSGGGGSGGGGSGGGGSGGGGSGGGGSQVQLVQSGAEVKKPGASVKVSCKASGYIFTAYTMHWVRQAPGQGLEWMGWIKPNNGLANYAQKFQGRVTMTRDTSISTAYMELSRLRSDDTAVYYCARSEITTEFDYWGQGTLVTVSSASTKGPSVFPLAPSSKSTSGGTAALGCLVKDYFPEPVTVSWNSGALTSGVHTFPAVLQSSGLYSLSSVVTVPSSSLGTQTYICNVNHKPSNTKVDKKVEPKSCDKTHTCPPCPAPEAAGGPSVFLFPPKPKDTLMISRTPEVTCVVVDVSHEDPEVKFNWYVDGVEVHNAKTKPREEQYNSTYRVVSVLTVLHQDWLNGKEYKCKVSNKALPAPIEKTISKAKGQPREPQVYTLPPCRDELTKNQVSLSCAVKGFYPSDIAVEWESNGQPENNYKTTPPVLDSDGSFFLVSKLTVDKSRWQQGNVFSCSVMHEALHNHYTQKSLSLSPGK
modifications: LD038 drug-linker coupled after TCEP reduction; DAR 5.1 by LC-MS; sites not given
notes: also called Basb 67-LD038 (5)
- binding result [10]: no binding
- EC50 (read off the curve) [11]: ~3 nM
- EC50 (read off the curve) [12]: ~3 nM
- binding result [13]: no binding
- binding result [14]: no binding
